Source: PubChem BioAssay AID624202 (National Center for Advancing Translational Sciences (NCATS), 2012)
Screen size: about 380,000 compounds; about 4,000 (1.1%) were called active. This list was built around the results that the source calls inconclusive (neither active nor inactive); the mix of calls is not that of the screen. Calls follow the shape of the dose curve; as a rule, active = well fitted activation curve with a large enough effect; inconclusive = small, poorly fitted or top-dose-only effect; inactive = no such curve, though single readings can be large or run the other way. Where the call is inconclusive, the potency comes from a doubtful curve fit.

assay: qHTS Assay to Identify Small Molecule Activators of BRCA1 Expression; conditions: MCF7-BRCA1-FFLuc reporter, luminescence, 48 h; activation: at 46.1 µM (top of the series), scaled: vehicle 0%, 10 µM genistein 100% unless noted; also: nearly all actives have a fitted effect of over 80% in size
In short: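 MCF7-BRCA1-FFLuc cells, 2000/well in phenol-red-free MEM, attached 2 h then treated 48 h at 37 C. Luciferase luminescence read 15 min after reagent; normalized to genistein maximum activation (10microM) and DMSO, concentration-response fitted.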
Potency is read from the fitted curve at half-maximal effect; tags tell the direction and shape of the fitted curve.

SMILES	Potency	activation
O=C(NCc1ccco1)c1ccc(-c2ccccc2Cl)o1	inconclusive: 10 µM [activator, partial curve, poor fit]	
NC(=O)c1ccccc1N/C=C/C(=O)c1ccc(F)cc1	inconclusive: 1.12 µM [activator, full curve, poor fit]	
COc1ccc(NC(=O)c2cc(-c3ccccc3)on2)cc1	inconclusive: 11.2 µM [activator, partial curve, poor fit]	
Cc1cc(C(=O)COc2ccccc2Cl)c(C)n1-c1ccc2c(c1)OCO2	inconclusive: 12.6 µM [activator, partial curve, poor fit]	
CNc1nc(-c2ccc3c(c2)CCN3C(=O)c2ccccc2F)c(C)s1	inconclusive: 11.2 µM [activator, partial curve, poor fit]	
Cc1nc(SCC(=O)Nc2ccc3c(c2)OCO3)c(C#N)c2c1CCCC2	active: 7.08 µM	
CCOC(=O)c1sc(NC(=O)CNCc2ccccn2)c(C(=O)OCC)c1C		inactive: -26.9%
Cc1ccc(N=C(c2cccs2)N2CCOCC2)cc1		inactive: 49%
O=C(c1cc(-c2cccc(O)c2)on1)N1CCOCC1	inconclusive: 3.16 µM [activator, partial curve, poor fit]	
c1ccc(CNc2ncnc3c2ncn3C2CCCCO2)cc1 (configuration not stated)	active: 12.6 µM	
N#C/C(=C\c1cccs1)C(=O)c1ccccc1Cl		inactive: -17.3%
O=C(NC(=S)Nc1ccccc1)C1CCCCC1	inconclusive: 17.8 µM [activator, partial curve, poor fit]	
COc1cc(NC2c3ccccc3C(=O)N2c2ccc(C)cn2)cc(OC)c1OC (configuration not stated)	inconclusive: 2.51 µM [activator, partial curve, poor fit]	
CCCNC(=O)c1ccc(CN2CCc3ccccc3C2)cc1		inactive: -3.89%
Clc1ccc(SCCOCCN2CCc3ccccc3C2)cc1		inactive: -56.8%
Nc1nnc(/C=C/c2ccccc2Cl)s1	inconclusive: 2.24 µM [activator, full curve, poor fit]	
Cc1cccc(C(=O)Oc2ccc(/C=N/NC(=O)c3ccc(O)cc3)cc2)c1		inactive: -17.2%
CCCCC(=O)Nc1cc2nn(-c3ccc(OC)cc3)nc2cc1C	inconclusive: 20 µM [activator, partial curve, poor fit]	
O=C(Nc1ccccc1C(=O)O)c1ccccc1	inconclusive: 35.5 µM [activator, single point]	
O=C(NCc1ccccc1)c1onc(CSc2ccccc2)c1C(=O)NCC1CC1		inactive: -36.1%
Cc1cccc(/C(N)=N/OC(=O)COc2ccccc2Cl)c1	inconclusive: 15.8 µM [activator, single point]	
O=C(Nc1ccccc1)Nc1ccc(-n2ccc(C(F)(F)F)n2)cc1	active: 3.55 µM	
CCN(CC)c1ccc(C(=O)Nc2ccccc2)cc1[N+](=O)[O-]	active: 10 µM	
CCOC(=O)c1ccc(N=c2scc(C)n2CC)cc1	inconclusive: 2.51 µM [activator, full curve, poor fit]	

SMILES	Potency	activation
c1csc(-c2nc(-c3ccncc3)no2)c1	active: 4.47 µM	
O=C(Nc1nccs1)c1ccccn1	inconclusive: 7.94 µM [activator, partial curve, poor fit]	
COc1ccc(-n2ncc3c(NCc4cccs4)ncnc32)cc1	inconclusive: 2.51 µM [activator, full curve, poor fit]	
CN(C)S(=O)(=O)c1ccc2c(c1)N(CC(=O)Nc1cccc(C(F)(F)F)c1)C(=O)CS2		inactive: -5.72%
CCN(CC)c1ccc(C=N/C(C#N)=C(\N)C#N)cc1	active: 2.51 µM	
CCOc1ccc(C(=O)N2CCc3ccccc32)cc1	inconclusive: 12.6 µM [activator, partial curve, poor fit]	
Nc1nc(COc2ccc3ccccc3c2)cs1	active: 6.31 µM	
CC(C)c1nnc(NC(=O)c2cccs2)s1	inconclusive: 8.91 µM [activator, partial curve, poor fit]	
O=C1CCN(C(=O)c2cccs2)c2ccccc21		inactive: 0%
Cc1cccc(-c2nnc(SCC(=O)C(C)(C)C)n2C)c1	inconclusive: 11.2 µM [activator, partial curve, poor fit]	
O=C(CN1C(=O)NC2(CCCCC2)C1=O)Nc1ccc2c(c1)OCCCO2	active: 5.01 µM	
COc1cccc(C(O)c2nc(-c3ccc4ccccc4c3)cs2)c1 (configuration not stated)	inconclusive: 35.5 µM [activator, single point]	
CCOC(=O)c1c(C)[nH]c(C(=O)COC(=O)C23CC4CC(CC(Cl)(C4)C2)C3)c1C		inactive: 2.84%
Cc1ccc(C(=O)NC(C)C2CC3CCC2C3)c(C)c1 (configuration not stated)	inconclusive: 17.8 µM [activator, partial curve, poor fit]	
Clc1ccc(OCCSc2nnnn2C2CCCCC2)cc1	inconclusive: 17.8 µM [activator, partial curve, poor fit]	
O=C1CCCC(O)=C1C=Nc1ccc2c(c1)oc1ccccc12	inconclusive: 8.91 µM [activator, partial curve, poor fit]	
Cc1cccc2nc(CSc3nc4ccccc4o3)cn12	inconclusive: 7.94 µM [activator, partial curve, poor fit]	
Fc1ccc(-n2nnc(-c3cccnc3)n2)cc1	inconclusive: 7.08 µM [activator, partial curve, poor fit]	
O=C(O)c1cc2ccccc2c2cc(Br)ccc12		inactive: -19.1%
COc1ccc(C)cc1NC(=O)CCc1c(C)nn(-c2ccc(N3CCCCC3)nn2)c1C	inconclusive: 11.2 µM [activator, partial curve, poor fit]	
COc1ccc(N=Nc2ccc(CO)cc2)cc1	inconclusive: 2.51 µM [activator, full curve, poor fit]	
C/C(=N\NC(=O)c1cccs1)c1cccnc1	inconclusive: 14.1 µM [activator, partial curve, poor fit]	
Cc1c(C(=O)N2CCN(Cc3ccc4c(c3)OCO4)CC2)sc2ncnc(N3CCN(c4ccccc4)CC3)c12		inactive: 13.6%
